Patent US20240398845A1, “USE OF SGLT-2 INHIBITORS FOR THE PREVENTION AND/OR TREATMENT OF CARDIAC DISEASES IN NON-HUMAN MAMMALS EXCLUDING FELINES, IN PARTICULAR CANINES” (BOEHRINGER INGELHEIM VETMEDICA GMBH, priority 2021, published 2024)
Like-named read-outs stand apart in the source and are kept apart here.

Tested on: dogs with occult or overt dilated cardiomyopathy (DCM)
Conditions: for cTnI: n < 0.08 ng/ml; for LVIDDN: n < 1.65; for MV E/A: restrictive > 2.0; for LA/Ao: n < 1.5; for EPSS: n < 7 mm; for FS %: n > 20%; for ESVI: n < 50 ml/m2; for EDVI: n < 100 ml/m2

N#Cc1ccc([C@@H]2O[C@H](CO)[C@@H](O)[C@H](O)[C@H]2O)cc1Cc1ccc(C2CC2)cc1 [velagliflozin, Velagliflozin]
cTnI (case 100-006, overt DCM, velagliflozin oral 0.05 mg/kg bodyweight/day only, Visit 2 (D 45), screening visit 0.11): 0.54 ng/mL | LVIDDN (case 100-006, overt DCM, velagliflozin oral 0.05 mg/kg bodyweight/day only, Visit 2 (D 45), screening visit 2.62): 2.37 | MV E/A (case 100-006, overt DCM, velagliflozin oral 0.05 mg/kg bodyweight/day only, Visit 2 (D 45), screening visit 2.84): 2.58 | LA/Ao (case 100-006, overt DCM, velagliflozin oral 0.05 mg/kg bodyweight/day only, Visit 2 (D 45), screening visit 3.08): 2.69 | EPSS (case 100-006, overt DCM, velagliflozin oral 0.05 mg/kg bodyweight/day only, Visit 2 (D 45), screening visit 13.1): 19.9 mm | FS % (case 100-006, overt DCM, velagliflozin oral 0.05 mg/kg bodyweight/day only, Visit 2 (D 45), screening visit 24.36): 20.25% | ESVI (case 100-006, overt DCM, velagliflozin oral 0.05 mg/kg bodyweight/day only, Visit 2 (D 45), screening visit 147.93): 135.74 ml/m2 | EDVI (case 100-006, overt DCM, velagliflozin oral 0.05 mg/kg bodyweight/day only, Visit 2 (D 45), screening visit 280.19): 225.31 ml/m2 | NT-proBNP (case 100-006, overt DCM, velagliflozin oral 0.05 mg/kg bodyweight/day only, Visit 2 (D 45), screening visit 708.00, n < 500 pmol/l): 197.50 pmol/L | cardiac TnI (in words) (case 100-007, overt DCM, at D45): decreased significantly | cTnI (in words) (case 100-007, overt DCM, at D90): increased moderately | creatinine and urea (case 100-007, overt DCM, at study end D101): mild increase | NT-proBNP (in words) (case 100-007, overt DCM, at the end of the study): elevated | LVIDDN (case 100-007, overt DCM, velagliflozin only, Visit 2 (D 45), screening visit 2.6): 2.57 | LA/Ao (case 100-007, overt DCM, velagliflozin only, Visit 2 (D 45), screening visit 2.71): 2.6 | MV E/A (case 100-007, overt DCM, velagliflozin only, Visit 2 (D 45), screening visit 2.78): 1.87 | EPSS (case 100-007, overt DCM, velagliflozin only, Visit 2 (D 45), screening visit 13.7): 15.9 mm | FS % (case 100-007, overt DCM, velagliflozin only, Visit 2 (D 45), screening visit 19.3): 15.4% | ESVI (case 100-007, overt DCM, velagliflozin only, Visit 2 (D 45), screening visit 167.59): 180.79 ml/m2 | EDVI (case 100-007, overt DCM, velagliflozin only, Visit 2 (D 45), screening visit 273.4): 264.71 ml/m2 | cTnI (case 100-007, overt DCM, velagliflozin oral 0.05 mg/kg bodyweight/day only, Visit 2 (D 45), screening visit 0.27): 0.09 ng/mL
